Sequences and labels used below:
B1: prmC L235A (protein)
chain: MEYQHWLREAISQLQASESPRRDAEILLEHVTGRGRTFILAFGETQLTDEQCQQLDALLTRRRDGEPIAHLTGVREFWSLPLFVSPATLIPRPDTECLVEQALARLPEQPCRILDLGTGTGAIALALASERPDCEIIAVDRMPDAVSLAQRNAQHLAIKNIHILQSDWFSALAGQQFAMIVSNPPYIDEQDPHLQQGDVRFEPLTALVAADSGMADIVHIIEQSRNALVSGGFLALEHGWQQGEAVRQAFILAGYHDVETCRDYGDNERVTLGRYYQ
B2: prmC L98Q (protein)
chain: MEYQHWLREAISQLQASESPRRDAEILLEHVTGRGRTFILAFGETQLTDEQCQQLDALLTRRRDGEPIAHLTGVREFWSLPLFVSPATLIPRPDTECQVEQALARLPEQPCRILDLGTGTGAIALALASERPDCEIIAVDRMPDAVSLAQRNAQHLAIKNIHILQSDWFSALAGQQFAMIVSNPPYIDEQDPHLQQGDVRFEPLTALVAADSGMADIVHIIEQSRNALVSGGFLLLEHGWQQGEAVRQAFILAGYHDVETCRDYGDNERVTLGRYYQ
B3: prmC L98W (protein)
chain: MEYQHWLREAISQLQASESPRRDAEILLEHVTGRGRTFILAFGETQLTDEQCQQLDALLTRRRDGEPIAHLTGVREFWSLPLFVSPATLIPRPDTECWVEQALARLPEQPCRILDLGTGTGAIALALASERPDCEIIAVDRMPDAVSLAQRNAQHLAIKNIHILQSDWFSALAGQQFAMIVSNPPYIDEQDPHLQQGDVRFEPLTALVAADSGMADIVHIIEQSRNALVSGGFLLLEHGWQQGEAVRQAFILAGYHDVETCRDYGDNERVTLGRYYQ
B4: prmC L235Q (protein)
chain: MEYQHWLREAISQLQASESPRRDAEILLEHVTGRGRTFILAFGETQLTDEQCQQLDALLTRRRDGEPIAHLTGVREFWSLPLFVSPATLIPRPDTECLVEQALARLPEQPCRILDLGTGTGAIALALASERPDCEIIAVDRMPDAVSLAQRNAQHLAIKNIHILQSDWFSALAGQQFAMIVSNPPYIDEQDPHLQQGDVRFEPLTALVAADSGMADIVHIIEQSRNALVSGGFLQLEHGWQQGEAVRQAFILAGYHDVETCRDYGDNERVTLGRYYQ
B5: prmC L98P (protein)
chain: MEYQHWLREAISQLQASESPRRDAEILLEHVTGRGRTFILAFGETQLTDEQCQQLDALLTRRRDGEPIAHLTGVREFWSLPLFVSPATLIPRPDTECPVEQALARLPEQPCRILDLGTGTGAIALALASERPDCEIIAVDRMPDAVSLAQRNAQHLAIKNIHILQSDWFSALAGQQFAMIVSNPPYIDEQDPHLQQGDVRFEPLTALVAADSGMADIVHIIEQSRNALVSGGFLLLEHGWQQGEAVRQAFILAGYHDVETCRDYGDNERVTLGRYYQ
B6: prmC L235W (protein)
chain: MEYQHWLREAISQLQASESPRRDAEILLEHVTGRGRTFILAFGETQLTDEQCQQLDALLTRRRDGEPIAHLTGVREFWSLPLFVSPATLIPRPDTECLVEQALARLPEQPCRILDLGTGTGAIALALASERPDCEIIAVDRMPDAVSLAQRNAQHLAIKNIHILQSDWFSALAGQQFAMIVSNPPYIDEQDPHLQQGDVRFEPLTALVAADSGMADIVHIIEQSRNALVSGGFLWLEHGWQQGEAVRQAFILAGYHDVETCRDYGDNERVTLGRYYQ
B7: prmC L98A (protein)
chain: MEYQHWLREAISQLQASESPRRDAEILLEHVTGRGRTFILAFGETQLTDEQCQQLDALLTRRRDGEPIAHLTGVREFWSLPLFVSPATLIPRPDTECAVEQALARLPEQPCRILDLGTGTGAIALALASERPDCEIIAVDRMPDAVSLAQRNAQHLAIKNIHILQSDWFSALAGQQFAMIVSNPPYIDEQDPHLQQGDVRFEPLTALVAADSGMADIVHIIEQSRNALVSGGFLLLEHGWQQGEAVRQAFILAGYHDVETCRDYGDNERVTLGRYYQ
B8: proA I31W (protein)
chain: MLEQMGIAAKQASYKLAQLSSREKNRVLEKWADELEAQSEIILNANAQDVADARANGLSEAMLDRLALTPARLKGIADDVRQVCNLADPVGQVIDGGVLDSGLRLERRRVPLGVIGVIYEARPNVTVDVASLCLKTGNAVILRGGKETCRTNAATVAVIQDALKSCGLPAGAVQAIDNPDRALVSEMLRMDKYIDMLIPRGGAGLHKLCREQSTIPVITGGIGVCHIYVDESVEIAEALKVIVNAKTQRPSTCNTVETLLVNKNIADSFLPALSKQMAESGVTLHADAAALAQLQAGPAKVVAVKAEEYDDEFLSLDLNVKIVSDLDDAIAHIREHGTQHSDAILTRDMRNAQRFVNEVDSSAVYVNASTRFTDGGQFGLGAEVAVSTQKLHARGPMGLEALTTYKWIGIGDYTIRA
B9: proA L273W (protein)
chain: MLEQMGIAAKQASYKLAQLSSREKNRVLEKIADELEAQSEIILNANAQDVADARANGLSEAMLDRLALTPARLKGIADDVRQVCNLADPVGQVIDGGVLDSGLRLERRRVPLGVIGVIYEARPNVTVDVASLCLKTGNAVILRGGKETCRTNAATVAVIQDALKSCGLPAGAVQAIDNPDRALVSEMLRMDKYIDMLIPRGGAGLHKLCREQSTIPVITGGIGVCHIYVDESVEIAEALKVIVNAKTQRPSTCNTVETLLVNKNIADSFLPAWSKQMAESGVTLHADAAALAQLQAGPAKVVAVKAEEYDDEFLSLDLNVKIVSDLDDAIAHIREHGTQHSDAILTRDMRNAQRFVNEVDSSAVYVNASTRFTDGGQFGLGAEVAVSTQKLHARGPMGLEALTTYKWIGIGDYTIRA
B10: proA L273A (protein)
chain: MLEQMGIAAKQASYKLAQLSSREKNRVLEKIADELEAQSEIILNANAQDVADARANGLSEAMLDRLALTPARLKGIADDVRQVCNLADPVGQVIDGGVLDSGLRLERRRVPLGVIGVIYEARPNVTVDVASLCLKTGNAVILRGGKETCRTNAATVAVIQDALKSCGLPAGAVQAIDNPDRALVSEMLRMDKYIDMLIPRGGAGLHKLCREQSTIPVITGGIGVCHIYVDESVEIAEALKVIVNAKTQRPSTCNTVETLLVNKNIADSFLPAASKQMAESGVTLHADAAALAQLQAGPAKVVAVKAEEYDDEFLSLDLNVKIVSDLDDAIAHIREHGTQHSDAILTRDMRNAQRFVNEVDSSAVYVNASTRFTDGGQFGLGAEVAVSTQKLHARGPMGLEALTTYKWIGIGDYTIRA
B11: proA I159A (protein)
chain: MLEQMGIAAKQASYKLAQLSSREKNRVLEKIADELEAQSEIILNANAQDVADARANGLSEAMLDRLALTPARLKGIADDVRQVCNLADPVGQVIDGGVLDSGLRLERRRVPLGVIGVIYEARPNVTVDVASLCLKTGNAVILRGGKETCRTNAATVAVAQDALKSCGLPAGAVQAIDNPDRALVSEMLRMDKYIDMLIPRGGAGLHKLCREQSTIPVITGGIGVCHIYVDESVEIAEALKVIVNAKTQRPSTCNTVETLLVNKNIADSFLPALSKQMAESGVTLHADAAALAQLQAGPAKVVAVKAEEYDDEFLSLDLNVKIVSDLDDAIAHIREHGTQHSDAILTRDMRNAQRFVNEVDSSAVYVNASTRFTDGGQFGLGAEVAVSTQKLHARGPMGLEALTTYKWIGIGDYTIRA
B12: proA I159Q (protein)
chain: MLEQMGIAAKQASYKLAQLSSREKNRVLEKIADELEAQSEIILNANAQDVADARANGLSEAMLDRLALTPARLKGIADDVRQVCNLADPVGQVIDGGVLDSGLRLERRRVPLGVIGVIYEARPNVTVDVASLCLKTGNAVILRGGKETCRTNAATVAVQQDALKSCGLPAGAVQAIDNPDRALVSEMLRMDKYIDMLIPRGGAGLHKLCREQSTIPVITGGIGVCHIYVDESVEIAEALKVIVNAKTQRPSTCNTVETLLVNKNIADSFLPALSKQMAESGVTLHADAAALAQLQAGPAKVVAVKAEEYDDEFLSLDLNVKIVSDLDDAIAHIREHGTQHSDAILTRDMRNAQRFVNEVDSSAVYVNASTRFTDGGQFGLGAEVAVSTQKLHARGPMGLEALTTYKWIGIGDYTIRA
B13: proA I159W (protein)
chain: MLEQMGIAAKQASYKLAQLSSREKNRVLEKIADELEAQSEIILNANAQDVADARANGLSEAMLDRLALTPARLKGIADDVRQVCNLADPVGQVIDGGVLDSGLRLERRRVPLGVIGVIYEARPNVTVDVASLCLKTGNAVILRGGKETCRTNAATVAVWQDALKSCGLPAGAVQAIDNPDRALVSEMLRMDKYIDMLIPRGGAGLHKLCREQSTIPVITGGIGVCHIYVDESVEIAEALKVIVNAKTQRPSTCNTVETLLVNKNIADSFLPALSKQMAESGVTLHADAAALAQLQAGPAKVVAVKAEEYDDEFLSLDLNVKIVSDLDDAIAHIREHGTQHSDAILTRDMRNAQRFVNEVDSSAVYVNASTRFTDGGQFGLGAEVAVSTQKLHARGPMGLEALTTYKWIGIGDYTIRA

± gives the standard deviation of the averaged measurements. Laboratory Escherichia coli strains with one amino-acid change in an essential protein, pooled on minimal glucose agar with carbenicillin or gentamicin at twice the control MIC (plus kanamycin and chloramphenicol for the plasmids), 48 h. Fold change of barcode share against drug-free plates; higher = less susceptible. Active = above 20 in both replicates (the paper's putatively resistant). '<' = one read or none on drug, '>' = one read or none on a drug-free plate. Shares are relative, so most strains fall below 1 when a few take over. Listed are strains with at least 15 reads on both drug-free plates, and hits; most hits rest on fewer reference reads. Replicate rank correlation about 0.5. Edits are read from barcodes. Some results are limits rather than exact numbers.

The first data set deals with Escherichia coli (laboratory strain). In words: barcode share on antibiotic plates over drug-free plates; higher = less susceptible. The note with it: antibiotic: carbenicillin; 2× MIC (3.1 µg/mL). The procedure: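 A pool of E. coli strains, each edited to carry one amino-acid change in an essential protein, was grown for 48 h on minimal glucose agar with or without antibiotic; strain barcodes were sequenced; mean of two replicates.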
Turning to B1, the “fold change of barcode share” value was found to be 0.262 ± 0.043.
On the same count and under the same terms, next, B2: 0.276 ± 0.01; B3: 0.314 ± 0.022; B4: 0.667 ± 0.73.
Still for that read-out and setting: in the case of B5 it was 0.399 ± 0.0091; in that of B6, 0.964 ± 0.72; in that of B7, 0.317 ± 0.15.
Same read-out and setting: in the case of B8 it was 0.309 ± 0.15; in that of B9, 0.397 ± 0.012.
As to B10, the “fold change of barcode share” value worked out at 0.448 ± 0.06.
As for B11, the “fold change of barcode share” value worked out at 0.591 ± 0.1.
As for B12, the “fold change of barcode share” value is 0.657 ± 0.2.
The same measure, in the same setting: next, B13: 0.354 ± 0.035.

Staying with this data set, now noted: antibiotic: gentamicin; 2× MIC (MIC 0.45 µg/mL).
As to B1, the “fold change of barcode share” value is below 0.00423.
Consider B2, for which the “fold change of barcode share” value worked out at 0.0063 ± 0.005.
For B3, the “fold change of barcode share” value was 0.00754 ± 0.0024.
On the same count and under the same terms, in the case of B4 it was below 0.015.
Turning to B5, the “fold change of barcode share” value was found to be 0.00728 ± 0.00022.
Regarding B6, the “fold change of barcode share” value is below 0.00784.
With B7, the “fold change of barcode share” value is 0.00286 ± 0.0025.
Still for that read-out and setting: in the case of B8 it was 0.012 ± 0.00099.
In the case of B9, the “fold change of barcode share” value worked out at 0.00738 ± 0.0024.
The same measure, in the same setting: next, B10: 0.00405 ± 0.0022; B11: 0.00801 ± 0.0002; B12: 0.00753 ± 0.0056.
Same read-out and setting: in the case of B13 it was 0.00499 ± 0.00071.

Source of the values: the supplement of paper PMC11876631.
